Source: PubChem BioAssay AID651820 (National Center for Advancing Translational Sciences (NCATS), 2012)
The campaign covered roughly 340,000 compounds. About 12,000 (3.5%) were called active. Inconclusive results, whose numbers are uncertain, are shown with a selection of clear calls. The call rests on the fitted dose curve; in most records, active means well fitted inhibition curve with a large enough effect; inconclusive means small, poorly fitted or top-dose-only effect, or another doubt; inactive means no such curve, though single readings can be large or run the other way. No potency is given beside an inconclusive call; the fits are too rough.

Assay: qHTS Assay for Inhibitors of Hepatitis C Virus (HCV)
Settings: Huh7.5.1 HCVcc-Cre (HCVcc is cell-culture hepatitis C virus) infection, luciferase reporter, 44 h; series mostly up to 41.8 µM
Outline: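 HCVcc-Cre virus at an moi near 0.5 was added right after compound to cells cultured 4 h from seeding (1,000 cells/well). Luciferase activity was determined 44 h later, 15 min after substrate addition at RT.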
Potency means the concentration at half of the fitted maximal effect; tags describe the fitted curve by direction and shape.

Compound | Potency
CN(CCOc1ccccc1)C(=O)c1ccc(N2CCCC2)c([N+](=O)[O-])c1 | inactive
O=c1cc(-c2cccs2)oc2ccc(Cl)cc12 | inactive
CCCOc1ccc(-c2nnc(N)s2)cc1 | inconclusive [inhibitor, single point]
Oc1c(Br)cc(Br)cc1CNc1cccc2cccnc12 | inactive
Nc1c(NC2CCCCC2)c2ccccc2oc1=O | inactive
C/C(=N/NC(=O)c1ccc(Cn2cccn2)o1)c1cccc(NC(=O)c2ccncc2)c1 | inactive
NC(=O)/C(=C/c1ccco1)NC(=O)/C=C/c1ccccc1 | inactive
Cn1c(=O)n(Cc2ccco2)c(=N)c2c3c(sc21)CCCC3 | active: 10 µM
CN(C)N=Nc1nc2c([nH]1)c(=O)n(C)c(=O)n2C | inactive
Cc1c(C#N)c(N)nc2c3c(sc12)NC(=O)CC3c1ccc(Cl)cc1 (stereo not given) | active: 22.4 µM
CCOc1cccc(C2C(C#N)=C(N)Oc3cc(C)oc(=O)c32)c1OCC (stereo not given) | inactive
Oc1c(Cl)cc(CN2CCOCC2)c2cccnc12 | active: 2.51 µM
CC(=O)N1CCN(c2ccc(NC(=O)c3cc(Cl)ccc3Cl)cc2)CC1 | inactive
Cc1csc(NC(=O)c2cc3c(C)nn(Cc4ccccc4Cl)c3s2)n1 | inconclusive [inhibitor, partial curve]
O=C(NCCCn1ccnc1)c1ccc(-c2ccccc2)cc1 | inactive
CC(=O)N1CC[n+]2c(-c3ccc(Cl)cc3)csc21 | inactive
O=C(NCc1ccco1)c1ccc2c(=O)n(CC3CCCO3)c(=S)[nH]c2c1 (stereo not given) | inconclusive [inhibitor, partial curve, poor fit]
NC(=Nc1ccccc1)Nc1ccccc1 | inconclusive [inhibitor, single point]
Cc1ccc(NC(=O)CSc2nn(-c3ccccc3)c(=S)s2)cc1S(=O)(=O)N(C)C | inconclusive [inhibitor, full curve]
CCC1(CC)CNC(=O)NC1 | inactive
Cn1c(SCc2ccccc2F)nc2ccccc2c1=O | inconclusive [inhibitor, single point]
CN1CCN(C(=O)c2cc3cc(Cl)ccc3[nH]2)CC1 | inactive
COc1ccc(C(=O)Nc2ccc(S(=O)(=O)N3CCCCC3)cc2)cc1 | inconclusive [inhibitor, single point]
COc1ccc2[nH]c3c(c2c1)CCN1C(=O)N([C@@H](C)C(=O)NCc2c(F)cccc2Cl)C(=O)[C@]31C | inconclusive [inhibitor, partial curve]
N#Cc1ccccc1Sc1ccccc1C(=O)Nc1ccc2ccccc2c1 | inconclusive [inhibitor, single point]
